No constants are given. Whether binding was seen depends on the method and setting. Some results given as binding are weak or reduced against the parent protein; the word gives no strength. Where a sequence is shown, tags or fusion partners need not be part of it.
T1: Tgl4 fused to the Gal4 activation domain or binding domain (budding yeast) (UniProt P36165)
T1 sequence: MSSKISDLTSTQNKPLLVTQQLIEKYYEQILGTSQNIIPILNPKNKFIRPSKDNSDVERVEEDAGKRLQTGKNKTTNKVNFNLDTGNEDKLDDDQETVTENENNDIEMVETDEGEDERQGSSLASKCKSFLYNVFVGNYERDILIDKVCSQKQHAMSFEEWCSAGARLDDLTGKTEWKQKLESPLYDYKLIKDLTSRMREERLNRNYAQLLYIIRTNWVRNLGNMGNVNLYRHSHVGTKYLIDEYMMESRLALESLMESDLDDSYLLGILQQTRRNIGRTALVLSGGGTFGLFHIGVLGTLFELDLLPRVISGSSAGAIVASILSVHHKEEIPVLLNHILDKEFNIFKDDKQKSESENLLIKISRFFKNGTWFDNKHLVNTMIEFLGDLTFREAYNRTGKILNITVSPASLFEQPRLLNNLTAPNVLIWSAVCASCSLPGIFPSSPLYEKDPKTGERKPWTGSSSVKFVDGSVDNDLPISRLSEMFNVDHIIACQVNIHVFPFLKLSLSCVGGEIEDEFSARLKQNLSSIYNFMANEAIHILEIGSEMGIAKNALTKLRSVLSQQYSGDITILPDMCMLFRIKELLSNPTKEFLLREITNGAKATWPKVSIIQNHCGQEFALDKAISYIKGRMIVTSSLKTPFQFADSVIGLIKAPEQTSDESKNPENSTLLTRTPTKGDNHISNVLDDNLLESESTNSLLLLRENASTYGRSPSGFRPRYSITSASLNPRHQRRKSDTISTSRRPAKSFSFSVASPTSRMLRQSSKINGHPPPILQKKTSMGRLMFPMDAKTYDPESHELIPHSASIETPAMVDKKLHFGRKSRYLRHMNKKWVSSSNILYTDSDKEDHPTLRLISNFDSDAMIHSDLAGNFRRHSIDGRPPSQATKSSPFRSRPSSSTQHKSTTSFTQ

T2: Ldo16 fused to the Gal4 activation domain or binding domain (budding yeast) (UniProt P40219)
T2 sequence: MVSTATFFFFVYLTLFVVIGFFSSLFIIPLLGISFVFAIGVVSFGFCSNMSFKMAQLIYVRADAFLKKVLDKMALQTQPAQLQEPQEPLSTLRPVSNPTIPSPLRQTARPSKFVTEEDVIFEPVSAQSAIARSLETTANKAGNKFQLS

T3: Sei1 fused to the Gal4 activation domain or binding domain (budding yeast) (UniProt Q06058)
T3 sequence: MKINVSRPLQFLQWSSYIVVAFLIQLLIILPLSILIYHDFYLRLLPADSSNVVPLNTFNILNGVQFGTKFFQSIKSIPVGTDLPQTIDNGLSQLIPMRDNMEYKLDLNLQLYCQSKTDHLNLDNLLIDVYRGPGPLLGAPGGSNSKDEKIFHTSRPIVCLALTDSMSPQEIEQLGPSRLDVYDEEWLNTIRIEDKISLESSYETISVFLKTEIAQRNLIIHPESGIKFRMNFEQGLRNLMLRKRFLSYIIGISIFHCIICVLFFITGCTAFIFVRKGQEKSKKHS

T4: Pln1 fused to the Gal4 activation domain or binding domain (budding yeast) (UniProt P36139)
T4 sequence: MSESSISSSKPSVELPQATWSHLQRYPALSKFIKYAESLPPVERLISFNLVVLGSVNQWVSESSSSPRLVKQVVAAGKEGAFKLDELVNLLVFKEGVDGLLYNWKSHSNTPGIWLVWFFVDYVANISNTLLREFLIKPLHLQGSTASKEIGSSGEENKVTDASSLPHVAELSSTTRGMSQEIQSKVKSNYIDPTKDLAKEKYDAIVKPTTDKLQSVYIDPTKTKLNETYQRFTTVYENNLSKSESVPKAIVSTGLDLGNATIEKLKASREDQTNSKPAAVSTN

T5: Ldb16 fused to the Gal4 activation domain or binding domain (budding yeast) (UniProt P25587)
T5 sequence: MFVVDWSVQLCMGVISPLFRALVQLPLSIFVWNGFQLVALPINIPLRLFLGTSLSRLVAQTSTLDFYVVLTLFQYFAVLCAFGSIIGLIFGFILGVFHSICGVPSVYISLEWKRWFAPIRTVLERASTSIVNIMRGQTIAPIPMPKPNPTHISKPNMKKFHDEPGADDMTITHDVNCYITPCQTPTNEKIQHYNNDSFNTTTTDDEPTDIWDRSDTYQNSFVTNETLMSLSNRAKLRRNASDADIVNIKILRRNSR

T6: Sei1 fused to the Gal4 activation domain or binding domain (budding yeast), Q06058
T6 chain: T3 sequence

B1: Ldo45 fused to the Gal4 activation domain or binding domain (protein, UniProt P40218 1-412)
chain: MAARNRRKNNKKKSLLVTSAAQEKNATYVLVAEELHKKTIDLNMGTETPLTENHENPIPAKEFKHQQKLEPIDEHDDGEDELSIKFKSMTKSSGPITEAEVQKLLLSYAFTSAAIQEDENEKESRHYPIKPPSPSASSLSAYFQSFVEKCKQVFYNFSLQTVEKLNALQNSLYEVFWIIFIYLNYWFPNVGDYVSNTFGQQDSIIIRISLSKSHFRALREKSSQKVQQAVKNIYFCFQEKPYLTAFKVSFAIGLVIPCSLLFLIMVSTATFFFFVYLTLFVVIGFFSSLFIIPLLGISFVFAIGVVSFGFCSNMSFKMAQLIYVRADAFLKKVLDKMALQTQPAQLQEPQEPLSTLRPVSNPTIPSPLRQTARPSKFVTEEDVIFEPVSAQSAIARSLETTANKAGNKFQLS
B2: Tgl4 fused to the Gal4 activation domain or binding domain (protein, UniProt P36165 1-910)
chain: T1 sequence
B3: Pln1 fused to the Gal4 activation domain or binding domain (protein, UniProt P36139 1-283)
chain: T4 sequence
B4: Ldo16 fused to the Gal4 activation domain or binding domain, P40219 1-148 (protein)
chain: T2 sequence

Key:
Experiment in all cases: two-hybrid; PJ69-4a with pGAD- and pGBD-plasmids; growth on SC-LEU-TRP-HIS plates with 1 mM 3-AT, 30 °C, 3 to 8 days
[1] = molecular target: T1, Tgl4 fused to the Gal4 activation domain or binding domain (budding yeast)
[2] = molecular target: T2, Ldo16 fused to the Gal4 activation domain or binding domain (budding yeast)
[3] = molecular target: T3, Sei1 fused to the Gal4 activation domain or binding domain (budding yeast)
[4] = molecular target: T4, Pln1 fused to the Gal4 activation domain or binding domain (budding yeast)
[5] = molecular target: T5, Ldb16 fused to the Gal4 activation domain or binding domain (budding yeast)
[6] = molecular target: T6, Sei1 fused to the Gal4 activation …; conditions: remark: other sources report otherwise

Row | Binder | binding [3] | binding [5] | other results
1 | B1 | binds weakly | binds | binding [1]: binds; binding [2]: binds; binding [4]: binds
2 | B2 | no binding | – | –
3 | B3 | – | no binding | –
4 | B4 | – | – | binding [6]: no binding

— PMC11342095
